Screen size: about 48,000 compounds; about 120 (0.25%) were called active. Not shown: some 4% with an inconclusive outcome. The call rests on the fitted dose curve; in most records, active means well fitted activation curve with a large enough effect; inconclusive means small, poorly fitted or top-dose-only effect, or another doubt; inactive means no such curve, though single readings can be large or run the other way. This is one part of the list.
Test: Primary qHTS for Identification of Small Molecule Activators of Huntingtin-Antisense Promoter Activity; further: nearly all actives have a fitted effect of over 55% in size
Details: HEK293 HTT-AS promoter firefly luciferase reporter, 24 h; series mostly up to 57.5 µM; activity change, positive = activation: at the top concentration
Description: Assay Provider: Russell L. Margolis M.D.
Department Neurology, Johns Hopkins University School of Medicine, Baltimore, MD
Huntington's Disease (HD) is a neurodegenerative disorder caused by a CAG repeat expansion in exon 1 of huntingtin (HTT). While there are currently no disease-modifying treatments for HD, recent efforts have focused on development of nucleotide-based therapeutics to lower HTT expression. As an alternative to siRNA or oligonucleotide methods, we hypothesized that suppression of HTT expression might be accomplished by small molecules that either (1) directly decrease HTT expression by suppressing HTT promoter activity or (2) indirectly decrease HTT expression by increasing the promoter activity of HTT-AS, the gene antisense to HTT that appears to inhibit expression of HTT.
We developed and employed a high throughput screen for modifiers of HTT and HTT-AS promoter activity using luminescent reporter HEK293 cells; of the 52,041 compounds tested, we identified 898 replicable hits. We used a rigorous stepwise approach to assess compound toxicity and the capacity of the compounds to specifically lower huntingtin protein in 5 different cell lines, including HEK293 cells, HD lymphoblastoid cells, mouse primary neurons, HD iPSCs differentiated into cortical-like neurons, and HD hESCs. We found no compounds which were able to lower huntingtin without lowering cell viability in all assays, though the potential efficacy of a few compounds at non-toxic doses could not be excluded.
SEQUENCE No. (1, 2, 3, etc.); […] (e.g., Cells, Incubation, Reagent, etc.); VALUE and DESCRIPTION.
1; Reagent; 4 uL; 2,500 Hek293 luciferase reporter cells per wells
3; Compound; 23 nL; Control inhibitor / compound library
5; Reagent; 2.5 uL; Firefly Luc reagent; Dual-Glo Luciferase Reporter Assay System (Promega)
6; Time; 10 min; room temperature incubation
7; Detection; Luminescence; FLuc
NOTES (numbers refer to sequence above)
1; High-throughput screening, measuring luminescence from a Hek293 luciferase reporter, was performed in 1,536 well white-walled tissue-culture treated plates. 2,500 cells were plated in 4 µL of Opti-MEM per well using a Multidrop Combi Reagent Dispenser (ThermoFisher).
2; Assay plates were cultured for 24 hours.
3; Control inhibitor (PTC124; final concentration of 50 uM) and compound library (at final concentrations of 460 nM - 57.5 uM) were added to the assay plate using the Kalypsis Pintool Robotic System equipped with 1536 pinheads.
4; Cells were then incubated for 24 hours at 37 degrees C prior to luminescence measurements.
5; In all cases, luminescence was measured using the Dual-Glo Luciferase Reporter Assay System (Promega) following the manufacturer's instructions.
6; Room temperature incubation.
7; Luminescence signal was obtained using the PerkinElmer ViewLux plate reader. Results were normalized to vehicle control (0% activity) and zero RLU (-100% activity).

Activity change, positive = activation, inactive:
COc1cccc(N2CCN(C(=O)C3CCN(S(=O)(=O)c4c(C)noc4C)CC3)CC2)c1 -14%
CCOC(=O)CN1C(=O)c2cccnc2Oc2ccccc21 -8.71%
O=C(CCCn1c(=O)c2sccc2n(Cc2cccc(Cl)c2)c1=O)NCc1ccc2c(c1)OCO2 -19.3%
Cc1cc(C)cc(NC(=O)CSCc2cc(=O)c3ccc(C)c(C)c3[nH]2)c1 -8.83%
CNS(=O)(=O)c1cn(CC(=O)N2CCN(c3cc(C)ccc3C)CC2)cc1S(=O)(=O)NC -8.65%
O=c1cc(-c2ccccc2)n2c(SCc3cccc([N+](=O)[O-])c3)nnc2[nH]1 -10.8%
Fc1ccc(Cn2c(-c3cccc(Br)c3)nc3ccccc32)cc1 -28.2%
CCOc1ccc(CCNC(=O)Cn2nc(CC)n3c(cc4sccc43)c2=O)cc1 -15.2%
Cc1nn2c(C)c(C(=O)NCC(C)c3ccccc3)cnc2c1-c1ccccc1 (stereo unspecified) -16.4%
O=C(NCCc1nc2ccccc2n1CCCOc1ccc(Cl)cc1)C1CCCCC1 -46.9%
O=C(Nc1c2c(nn1-c1ccc(Cl)cc1)CS(=O)(=O)C2)c1ccccc1F -15%
COc1ccc(C2NC(=O)N(C)C3=C2C(=O)N(c2ccc(F)cc2)C3)cc1 (stereo unspecified) -17.8%
Cc1cccc(NC(=O)CSc2nccn2-c2cccc(Cl)c2)c1C -17.3%
CCC(C(=O)NCc1ccccc1Cl)n1nc(C)c2sc3ccccc3c2c1=O (stereo unspecified) -4.43%
Cc1ccc(NC(=O)c2sc(-n3nc(C)c(Cc4ccc5c(c4)OCO5)c3C)nc2C)cc1C -18.5%
CSc1ccc(/C=C2/C(C)=C(CC(=O)O)c3cc(F)ccc32)cc1 -0.644%
CCOc1cc(C2c3c(-c4ccccc4O)n[nH]c3C(=O)N2Cc2cccnc2)ccc1O (stereo unspecified) 5.51%
CCOC(=O)c1ccc(C#Cc2ccc3c(c2)C(C)(C)CCS3)nc1 -4.31%
Cc1ccc(C)c(CN2C(=O)c3ccccc3S(=O)(=O)c3ccc(C(=O)N4CCN(c5ccccc5F)CC4)cc32)c1 -10.5%
COc1ccc(CNC(=O)CCc2nnc3n(CC(C)C)c(=O)c4ccccc4n23)cc1 -6.89%
COc1ccc(C)cc1NS(=O)(=O)c1ccc2[nH]c(=O)c(=O)[nH]c2c1 -9.14%
CCn1ccc2cc(S(=O)(=O)N3CCCN(C(=O)NCCOC)CC3)ccc21 2.93%
CCS(=O)(=O)N1CCc2cc(C(=O)Nc3cc(C(F)(F)F)ccc3Cl)ccc21 -21.6%
CCOC(=O)C1=C(CN2CCN(c3cc(C)ccc3C)CC2)NC(=O)NC1c1ccc(Cl)cc1 (stereo unspecified) -69.8%
COc1cccc(NC(=O)Cn2c(=O)n(CCCCC(=O)NCCc3ccccc3)c(=O)c3ccccc32)c1 -23.4%
CCOc1cc(C(=O)N2CCC(c3ccncc3)CC2)cc(OCC)c1OCC -17.4%
COc1ccc(Cl)cc1NC(=O)CSc1nc(-c2ccco2)cc(C(F)(F)F)n1 -29.6%
NC(=O)C1CCN(C(=O)Cn2c(-c3cccs3)cc3ccccc32)CC1 -14%
CCOc1ccc(NC(=O)CN2CCN(CC(=O)Nc3ccccc3OCC)CC2)cc1 -16.2%
CCCCN(c1ccccc1)S(=O)(=O)c1ccc2c(c1)CC(C)N2C(=O)C1CC1 (stereo unspecified) -38.1%
CCc1ccccc1Nc1nc2ccccc2n2cnnc12 -24.9%
COc1ccc(CCNC(=O)CCn2c(=O)c3cccn3c3cccnc32)cc1OC -13.9%
COc1ccccc1-n1nc(-c2ccccc2)c2cnc3cc(C(F)(F)F)ccc3c21 -19.3%
CCOC(=O)c1ccc(NC(=O)COC(=O)c2cn(CC)c3nc(C)ccc3c2=O)cc1 -9.73%
CC1CN(S(=O)(=O)c2ccc3c(c2)NC(=O)CC(=O)N3)c2ccccc2O1 (stereo unspecified) -3.69%
COc1ccc(-c2oc3ncn4nc(-c5ccccc5C)nc4c3c2-c2ccc(OC)cc2)cc1 -6.06% [at 11.5 µM, percent change from vehicle, -100% = no light]
Cc1cccc(C)c1OC(=O)CSc1nnc(-c2cccs2)o1 -2.05%
Cc1ccc(-n2nc(C(=O)Nc3ccc(C)c(F)c3)c3c4ccccc4n(C)c3c2=O)cc1 -10.5%
NC(=O)Cn1c(=O)n(CCCCCC(=O)NCc2ccccc2)c(=O)c2sccc21 5.1%
COc1ccc(-n2c(=O)c3ccccc3n(Cc3ccccc3C)c2=O)c(OC)c1 -36.8%
CC(=O)Nc1nonc1-c1nnc(SCC(=O)Nc2ccc(C)c(Cl)c2)n1-c1ccccc1 -23.5%
CCOc1ccc(C(=O)c2cnc3ccc(Cl)cc3c2S(=O)(=O)c2ccc(C)cc2)cc1 2.02%
CCc1ccccc1Nc1nc2cc(Cl)c(Cl)cc2nc1-n1nc(C)cc1C -3.19%
Cc1ccc(-n2nc(CO)c(C(=O)NCCCc3ccccc3)n2)cc1 -9.25%
COc1ccccc1CNC(=O)c1cnc2sc(N3CCCCCC3)nn2c1=O -16.6%
O=c1c2ccccc2n(Cc2ccccc2F)c(=O)n1-c1cccc(F)c1 -31.5%
